# Assay results from the supplement of paper PMC11417369.
# ± gives the standard deviation of the averaged measurements. The list shows a part of the results.
# Test system: PfAP2-EXP AP2 domain (GST-tagged)
# Experiment: gcPBM binding intensity (ln(normalized median fluorescence intensity)); higher = stronger DNA binding
# Summary of the method: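 After 1 h on an Agilent 4 × 180k array of primer-extended double-stranded 36-bp intergenic genomic probes and negative controls, bound GST-tagged P. falciparum DNA-binding domains were detected with Alexa488 anti-GST antibody and scanned at 488 nm. The domains had been expressed in E. coli, and binding took place in 1× PBS with 1% milk, 0.2 mg/ml BSA, 0.5% salmon testes DNA and 0.03% Triton X-100. Binding intensity is the highest Masliner-normalised natural-log median intensity across replicate spots of either probe orientation.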
row,Sequence,gcPBM binding intensity (ln)
1,ATGGGACATATATATACACACATATATATATATATA [CACACA_site1202],10 ± 0.21
2,ACATCTCTTATATATTCACACACATATATATAATTA [CACACA_site8424],8.82 ± 0.35
3,GCACATCTATATGAAACACACATGGAAACATCTCTT [CACACA_site7793],8.47 ± 0.35
4,TTAAAAAATTTTTAAGCACACACATAGATAATATAT [CACACA_site8440],8.85 ± 0.45
5,TTTTTTTTTTAATTCGCACACTGTCTTCATGCAATT [CACACA_site4882],8.86 ± 0.45
6,GAAACTTCAAGAAATGCACACAATAAAATAAATAAA [CACACA_site1549],8.71 ± 0.35
7,AGCATTAAAAATGGAATGGAATTAAGCTATATATTA [CACACA_negctrl_site1571],8.37 ± 0.46
8,ATAGAATATTATATTACACACAGAATAATAAAAAAT [CACACA_site86],8.55 ± 0.49
9,AGTATATATTATATATATATATATATATTATATATG [TGCATGCA_negctrl_site99],8.25 ± 0.26
10,CATTTCGAAAAAAAATGTACTTATTATATTTATATA [XGTACX_site6752],8.03 ± 0.4
11,TTATCTTACATAAATTATAACAATAATATGTGTATA [XGTACX_negctrl_site379],7.97 ± 0.33
12,TGTATATATTATAAAAGTACATAATATTCTTAGATA [XGTACX_site5623],8.19 ± 0.34
13,ATAATATGAAATATAACACACATATATAAAAACATT [CACACA_site866],8.64 ± 0.57
14,TATTTTTTTTTTGGGTGTACCTTTTATATATATTGT [XGTACX_site5036],8.64 ± 0.57
15,TATACACATTTTTATACACACTTGTTTTATAAAACG [CACACA_site6480],8.59 ± 0.42
16,CATTTATATATATACACACACACAAAAAAAAAAAAA [CACACA_site2645],8.44 ± 0.49
17,ATTTAACTAAAGAAGGCACACGTGTTTAAAAAAAAA [CACACA_site5241],8.85 ± 0.52
18,AATATTATATTTTATTGTACTAATAAAAATATATGC [XGTACX_site5435],8.46 ± 0.46
19,GACGTTATGATACACATACACACAGGGATAAAAAAT [CACACA_site2882],8.91 ± 0.4
20,TTTTTTTTTTTTTTTTGTACTTAAAAATTTATATAA [XGTACX_site7718],8.16 ± 0.5
21,TATATATATATATATGCATGTACATATATTTGTTAT [TGCATGCA_site379],10.3 ± 0.17
22,GTAACATACACATATACACACACACCGATATACATA [CACACA_site8278],8.7 ± 0.35
23,AATATAGTTCAATATACACACCCCTTTATTCATTTT [CACACA_site3625],8.72 ± 0.54

row,Sequence,gcPBM binding intensity (ln)
1,ATTAATTAAGGCACATGTACAAAATATTTTTTATAA [XGTACX_site1964],8.85 ± 0.69
2,TATACAATCTATATAACACACATATTTATATAAAAT [CACACA_site1797],8.51 ± 0.47
3,CACCAATTCCTATGCACACACATCTGCATATTATAT [CACACA_site5049],8.96 ± 0.32
4,TTATTTACATCAAGTACATGCAGTAAAAAAAAAAAA [TGCATGCA_site351],9.03 ± 0.3
5,ACAAAACGAACATACGCATGTGTGTACATTAATATA [TGCATGCA_site922],8.77 ± 0.37
6,ATGAACAGTTCATGTTGTACAATCTCCATTTTTTAC [XGTACX_site3933],8.98 ± 0.45
7,ATATAATATATGTATACACACATATTATATAATATT [CACACA_site3699],8.34 ± 0.32
8,CAATATAAAAAACACACACACAAACATATATTTATA [CACACA_site3703],8.59 ± 0.66
9,TATTTATATAAAAATACACACATGAATGGATATATA [CACACA_site6335],8.34 ± 0.41
10,TGTCGGCTTAGATTAGTGCACTGAAAAATGAAGTAT [GTGCAC_site9919],9.195 ± 0.064
11,ATATTATATATATAGGTGCGAGTATTTTATAAATAT [GTGCAC_site9889],8.55 ± 0.31
12,TATACACCCGGACACACACACATATATATATATATA [CACACA_site5030],10.1 ± 0.54
13,TAAGTATACACATACACACACACACTAATAAAAAAA [CACACA_site8035],8.65 ± 0.64
14,TGATATATTTATATTACACACTTAAACGAAAAAAAA [CACACA_site3021],8.52 ± 0.44
15,TATTATAATATTTATACACACATAATTTTGATAAAT [CACACA_site583],8.26 ± 0.3
16,AAATATAAAATTTATTGTACATTATATATAATATAT [XGTACX_site1416],8.32 ± 0.32
17,TAAAAATATTAATAAACACACAATGAGATATTGAAT [CACACA_site3153],8.43 ± 0.51
18,ATATATATATTATATGCACACGTTAAAATTTCATAT [CACACA_site4552],9.28 ± 0.12
19,CATTCTTGTTTAAAAAGTACATAAACATATATATAT [XGTACX_site1751],9.66 ± 0.13
20,TAAATTAATATGTATCGTACAATATATAAAACGATG [XGTACX_site2818],8.53 ± 0.37
21,AAAAAAAATAAAGAGAAAAAAAAAAGAAAATTATAT [GTGCAC_negctrl_site550],8.62 ± 0.49
22,TTCTTCTGTTTTATTACACACCATTTTGCGTATACA [CACACA_site2070],9.19 ± 0.47
23,ACATATTATATAACTCGTACTCGTAAAATATGTTGT [XGTACX_site2240],8.66 ± 0.39

row,Sequence,gcPBM binding intensity (ln)
1,GTTCTTTTATATATTTGTACATATTTATATATATTG [XGTACX_site4078],9.06 ± 0.35
2,GTCATAAATGTACGCACACATACATAAACATATACA [CACACA_site650],8.82 ± 0.13
3,TTTGAACTCTTAAGTGGTACAAATTTGTATTTTCTC [XGTACX_site2322],8.75 ± 0.42
4,GAAATGTGGTAATATACACACACGCATATATTTATA [CACACA_site6285],8.49 ± 0.38
5,ACATAGCAATGTTTCACACACAAGAAAAAATACAAT [CACACA_site2379],8.96 ± 0.42
6,TATAAATAAAAATATACACACTGTATTATTGTAATA [CACACA_site7721],8.2 ± 0.34
7,AATGGAATATATATTTGTACATAAATATTATAATAA [XGTACX_site8524],8.56 ± 0.28
8,ACATGTTAACTAAATGTACACACCTATGTTGATGTA [CACACA_site1821],8.56 ± 0.42
9,TTTACTCCTACAACATGTACATAAAATAAATTTTTT [XGTACX_site5010],8.83 ± 0.3
10,TTATTTACAACTTTTTTTTTTTTATTTTATTTTATT [CACACA_negctrl_site341],8.41 ± 0.47
11,AATATAAGTAGTACAGTGCATATAATAATTAGAAGA [GTGCAC_site9485],9.125 ± 0.021
12,GATTAAACACAAAGAAGTACGGACATAAAAAAAAAA [XGTACX_site3686],8.82 ± 0.59
13,TTGATTTATATTTAATGTACATTTTTACAGAAAATT [XGTACX_site2747],8.48 ± 0.38
14,CCATAAAAAGGATACACACACACACGCACATATATA [CACACA_site6550],8.73 ± 0.5
15,TCGTGGTTTTAATAAGTGCGCAATTTAAATATTTTT,8.84 ± 0.27
16,TATTATTATTATTACACACACAATTATATTTACCCC [CACACA_site503],9.12 ± 0.52
17,GTATATATATATATATATATATATTTTTATTTATTT [CACACA_negctrl_site589],8.65 ± 0.18
18,ATATATGTAACATATTGTACATATATGTATGTATGT [XGTACX_site3281],8.84 ± 0.16
19,ATGATAAAATTATGTAGTACATATTTGAATGTAAAT [XGTACX_site688],8.45 ± 0.35
20,TAATCGGTAATATTAACACACACATTTATATATATT [CACACA_site8274],8.57 ± 0.47
21,AATATCTGTATATCCACACACATATATATATATATA [CACACA_site4987],10 ± 0.46
22,TAATTTCTTATGTAGTGTACAAATAATATATGATAT [XGTACX_site597],8.51 ± 0.28
23,AATATCACCACATTGTTACTATAATATATAAAAAAG [XGTACX_negctrl_site384],8.39 ± 0.38

row,Sequence,gcPBM binding intensity (ln)
1,AAAAGGAGAAATATTGCACACGTGCAAAATGGTATG [CACACA_site4300],9.095 ± 0.064
2,ATTATTCATATAACACGTACAAAACGAAAAACAAAT [XGTACX_site3873],9.1 ± 0.54
3,GTATTAATAAAAATACGTACTTATTATTTATAATAA [XGTACX_site7672],8.225 ± 0.035
4,ATTCATAAAAGTTGTACATGCAATTTTTTTTTTTTT [TGCATGCA_site270],8.89 ± 0.26
5,ATTTTGTTATGAAACACACACATATATATATATATA [CACACA_site3650],10.2 ± 0.18
6,TATATGCCTATAAGAAGTACTGTGTAATGTAATATA [XGTACX_site8089],8.69 ± 0.49
7,TAAACATAAATATGCACACATATACATATATTCATA [CACACA_site2667],8.48 ± 0.014
8,AAGAAAAATATATTTATATATATATATATTAAATAT [TGCATGCA_negctrl_site500],8.21 ± 0.23
9,AATTTTATACGATAAACATGCAAATAAATAAATAAA [TGCATGCA_site227],8.95 ± 0.31
10,ACAGCCAATACGGAAACACACAAGTTATTTTATCAT [CACACA_site5507],8.56 ± 0.64
11,TATAATAATATTTATTGTACAATTAGTTTAATTCAT [XGTACX_site272],8.38 ± 0.33
12,TTTATTATATAAACATGTACACAATTTGGTATATTC [XGTACX_site3112],8.6 ± 0.32
13,AAAGAAAAAAAAAACACACACACACCCATTCAATAT [CACACA_site38],8.62 ± 0.52
14,AAATTATGCATCGAGGTGCGTCTTAAAATATAGTGG,8.76 ± 0.42
15,ATATAAATTCAAATTACACACATTTATTTTTTTTAC [CACACA_site53],8.37 ± 0.45
16,ACTAATAATTTGTCGGTGCATAAAATTATTTTTATT [GTGCAC_site9840],9.28 ± 0.64
17,CTACATAATAAAAAAAGTACATTCTAATAAATTGAC [XGTACX_site4504],8.65 ± 0.35
18,GAAAATCAGTTAAACACACACATAAAAAAAAAAAAA [CACACA_site2875],8.38 ± 0.84
19,ATCATATGTATGCATACACACAAAAAGTTATTTATA [CACACA_site6325],8.54 ± 0.32
20,CATATAAAAAAATAGACACACATTTTATATAATACG [CACACA_site1896],8.63 ± 0.32
